The source of these data is PMC5836133.

The other results are listed elsewhere or left out. At the low end of the ranking the order means little.

The test system of the experiment is T1, GST-NbGlk1(82-244).
T1 sequence: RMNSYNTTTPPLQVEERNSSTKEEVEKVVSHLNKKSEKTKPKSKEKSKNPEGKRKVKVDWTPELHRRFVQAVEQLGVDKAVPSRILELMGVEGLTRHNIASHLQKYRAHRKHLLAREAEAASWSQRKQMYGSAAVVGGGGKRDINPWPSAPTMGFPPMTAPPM
Nature of the experiment: protein-binding microarray.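 Further: rank-based score ranging −0.5 to +0.5 with E above 0.45 taken as significant binding.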 The note with it: NbGlk1 is a Golden2-like transcription factor of Nicotiana benthamiana; high values mean tight binding; most listed sequences are background and not binding sites; double strand, one strand shown.
AGTGACTA gave a binding signal of -0.126 E-score.
Take ATTAATGA: the binding signal is 0.119 E-score.
AAGCGTGG registered a binding signal of -0.176 E-score.
In the case of ACTCACCA it was -0.057 E-score; in that of ATAGCGTG, 0.000991 E-score.
In the case of AAATCTGT it was 0.446 E-score.
In the case of ACCGGTAC it was -0.213 E-score.
In the case of ACAAGGAC, the binding signal was -0.14 E-score.
In turn, ACTTGAAA had a binding signal of 0.123 E-score.
ACCTCTTC: the binding signal is -0.16 E-score.
In the case of ATTCTGAG it was 0.196 E-score; in that of AACAAATG, -0.0396 E-score; in that of ATCGCCTA, 0.229 E-score.
Sequence ATCATCAA registered a binding signal of 0.0811 E-score.
In the case of ACGTTGGG it was -0.103 E-score; in that of ACCCGAGG, -0.0907 E-score.
In the case of AAGAGTAC it was -0.242 E-score.
In the case of AGTCAACT it was -0.157 E-score.
For the sequence AACTGTCT, the binding signal was -0.0952 E-score.
In the case of ATGAAGGC, the binding signal is -0.0808 E-score.
Take AAGTGGCT: the binding signal is -0.217 E-score.
Sequence AGGTCAGC yielded a binding signal of -0.249 E-score.
In the case of ACTCTTTG it was -0.0325 E-score; in that of AGTTTACG, -0.12 E-score; in that of AGCAGTCA, 0.0204 E-score.
ACGTAGTG: the binding signal was -0.103 E-score.
Take AATCATGG: the binding signal was 0.258 E-score.
In the case of AACTTAAC it was 0.00674 E-score; in that of CAAGTGTA, -0.138 E-score.
In the case of AATGCGTC it was 0.0232 E-score; in that of ACCCCCGA, -0.101 E-score; in that of AACCCACA, -0.0413 E-score.
Sequence AAAAAGTG registered a binding signal of 0.0191 E-score.
For the sequence AACTGCTG, the binding signal was -0.104 E-score.
For ACATGGCC, the binding signal was -0.287 E-score.
In the case of ATTGAAGC it was -0.106 E-score.
In the case of CAATCGTA it was 0.235 E-score; in that of AAAGAGTC, -0.115 E-score.
ATTAAATC: the binding signal was determined as 0.217 E-score.
Regarding CACCCGCA, the binding signal was -0.0935 E-score.
In the case of ACATAGGT it was 0.00977 E-score.
In the case of AAAGCACG, the binding signal turned out to be 0.0103 E-score.
In turn, ACAGGAGA yielded a binding signal of 0.0464 E-score.
In the case of AAGATTCT it was 0.452 E-score.
The sequence ACGTTATC registered a binding signal of 0.0824 E-score.
AACAATGC had a binding signal of -0.107 E-score.
In the case of ATGATAAG it was 0.0311 E-score; in that of CAAACCAG, 0.0874 E-score; in that of AGGCCAGC, -0.308 E-score.
As to ACAAGACT, the binding signal is -0.131 E-score.
Consider AGCAGATG, for which the binding signal was -0.0683 E-score.
In the case of CACTGTAC it was -0.138 E-score; in that of AATACATC, 0.0093 E-score.
In the case of AATAGTCG it was 0.00642 E-score.
In the case of ACCCTGGG it was -0.132 E-score.
In turn, AACCAGTG displayed a binding signal of -0.174 E-score.
In the case of AAGCAGGC it was -0.249 E-score; in that of AAAACTGG, -0.0736 E-score; in that of AGAACCCG, -0.173 E-score.
In the case of ATCTATCA it was 0.276 E-score; in that of AGCTAGGC, -0.179 E-score; in that of ATCCTCTG, 0.3 E-score.
As to AGAACGAG, the binding signal is -0.188 E-score.
Regarding AGTGCTGA, the binding signal is -0.159 E-score.
As to AGTGGCTC, the binding signal was -0.223 E-score.
In the case of AAAGCTGT it was 0.116 E-score; in that of CAGACGTA, -0.0408 E-score; in that of AGCGACAC, -0.0946 E-score.
CAATCGCA gave a binding signal of 0.23 E-score.
In the case of ACTAATAT it was 0.209 E-score.
In the case of CAAGGTAG it was -0.0891 E-score.
In the case of CAAGTCCA it was -0.0826 E-score; in that of ACGGCGCG, -0.122 E-score.
Sequence AGTCCGAC displayed a binding signal of -0.0743 E-score.
For the sequence ACTGCCCT, the binding signal is -0.171 E-score.
In the case of ACACTCTG it was -0.0476 E-score; in that of CAAGGACG, -0.245 E-score.
In the case of AGTGACAA it was -0.0339 E-score; in that of ACGATACT, 0.194 E-score.
ATACTCCC came in with a binding signal of 0.0901 E-score.
In the case of CAATTTAC it was 0.11 E-score; in that of AGTGGCCC, -0.334 E-score.
In the case of ATGGTTTC it was -0.0215 E-score.
ATACGTAG: the binding signal amounted to 0.0166 E-score.
In the case of ATACTAGA it was 0.139 E-score.
In the case of AACACAGG it was -0.033 E-score; in that of AAGCTGAG, -0.149 E-score.
ACGTTGAT yielded a binding signal of 0.0571 E-score.
In the case of AACGATGA it was -0.0136 E-score; in that of ATGGAATG, -0.0857 E-score; in that of AGACGGAG, -0.167 E-score.
In the case of AGTGCCCA it was -0.196 E-score; in that of AAAACCCT, -0.146 E-score.
In the case of AGTTAGCG it was -0.0309 E-score; in that of AGTTAGTG, 0.025 E-score; in that of AGCAACCT, -0.202 E-score.
Take ACTGGTGC: the binding signal is -0.197 E-score.
AAGAGAGC: the binding signal is -0.185 E-score.
AACACGCT displayed a binding signal of -0.11 E-score.
In the case of ATCACTCC it was -0.00107 E-score; in that of AATCTTCA, 0.388 E-score; in that of AAGATGAC, -0.0149 E-score.
In the case of CAATATAC it was 0.186 E-score.
Sequence ACGGCTAA displayed a binding signal of -0.0623 E-score.
In the case of ACGGCGTG, the binding signal is -0.153 E-score.
For the sequence AAGCTTCG, the binding signal is -0.0971 E-score.
In the case of AGCACGTG it was -0.115 E-score; in that of ATTCGTCG, 0.209 E-score.
AACGTTAT came in with a binding signal of 0.0462 E-score.
For AGAACATC, the binding signal was -0.0154 E-score.
On to AGTTGGGC, for which the binding signal is -0.265 E-score.
The sequence AATTGCGT yielded a binding signal of 0.233 E-score.
In the case of CAATTCTA it was -0.0249 E-score.
In the case of AAAAGTCT it was -0.0634 E-score; in that of CACTTCAA, -0.048 E-score.
The sequence AATTTCTG gave a binding signal of 0.14 E-score.
On to AAATGCCC, for which the binding signal is -0.0279 E-score.
On to AAACTATG, for which the binding signal turned out to be 0.0224 E-score.
Sequence ATCGTATA had a binding signal of 0.237 E-score.
On to ACCCGACC, for which the binding signal is -0.283 E-score.
In the case of ATCCGAAC it was 0.239 E-score; in that of CAACCATC, -0.143 E-score; in that of ACCGAGGC, -0.126 E-score.
With AGCAAAAT, the binding signal worked out at 0.241 E-score.
In turn, ATACGCGC came in with a binding signal of 0.223 E-score.
In the case of ATTTCCCG it was 0.309 E-score; in that of CACGTGGC, -0.121 E-score; in that of AGACATCC, -0.105 E-score.
As for ACAGCCTC, the binding signal is -0.199 E-score.
In the case of ACACCAAC it was -0.159 E-score.
For the sequence ATACACCA, the binding signal worked out at 0.123 E-score.
In the case of AAAACTTA it was 0.223 E-score; in that of ATAAAGGC, -0.199 E-score.
Take ACACGGAT: the binding signal was 0.188 E-score.
Regarding ACGGCCTG, the binding signal was -0.262 E-score.
In the case of AACAGACT it was -0.267 E-score; in that of ATTATATC, 0.273 E-score.
As to AACTTCGT, the binding signal worked out at 0.0168 E-score.
In the case of AGTTCCCA it was -0.172 E-score; in that of CAGCCGAC, -0.292 E-score; in that of AGGTAGAT, 0.237 E-score.
Sequence ATCGCCAC registered a binding signal of 0.22 E-score.
The sequence ACAGGACC returned a binding signal of -0.191 E-score.
In the case of AATATCAT it was 0.282 E-score; in that of ACTCCTTA, -0.0183 E-score; in that of ATATCTGA, 0.399 E-score.
In the case of ACCCAGGT it was -0.301 E-score; in that of ATACGACG, 0.132 E-score.
In the case of AGGAATTA it was 0.177 E-score; in that of ATCTACTG, 0.189 E-score.
ACCTCAGG came in with a binding signal of -0.125 E-score.
The sequence ATCGACCA returned a binding signal of 0.0604 E-score.
As to ACTGACAC, the binding signal was -0.149 E-score.
Consider AGGCGACT, for which the binding signal was -0.205 E-score.
In the case of AGTCCAAT it was -0.0711 E-score.
In the case of AGATCCGC it was 0.34 E-score.
In the case of ATTATAAA it was 0.181 E-score; in that of ACTGCTAC, -0.116 E-score; in that of CAGCATCG, 0.0174 E-score.
The sequence ATTAACCG had a binding signal of -0.163 E-score.
In the case of CACTCCCG, the binding signal was -0.152 E-score.
CAAGTTCG returned a binding signal of -0.0617 E-score.
Take ACCGATGG: the binding signal was -0.226 E-score.
In the case of AATCAAAA it was 0.296 E-score; in that of AAGCTCGG, -0.0526 E-score; in that of ATCGTGAG, 0.177 E-score.
Turning to ATATATCC, the binding signal was determined as 0.262 E-score.
In the case of CAATATAG it was 0.184 E-score; in that of ACAGTCTG, -0.158 E-score; in that of CACGTAGA, 0.0632 E-score.
In the case of AGTGGGCG it was -0.197 E-score.
In turn, AATTTGAC had a binding signal of 0.108 E-score.
